Data published in paper PMC6919601, “Identification of Plasmodium dipeptidyl aminopeptidase allosteric inhibitors by high throughput screening” (PLoS ONE, 2019).
Where “and” joins values, the source holds several entries; their conditions need not be identical. Equal values may be shown once. The campaign covered roughly 110,000 compounds. About 230 (0.21%) showed an effect of 50% or more. This is one part of the list.

molecular target: DPAP1 (Plasmodium falciparum, UniProt Q8IIJ9); experiment: primary screen, percent inhibition; read by cleavage of a fluorogenic dipeptide substrate; higher = more effect of the substance; set-up: species or system P. falciparum D10 trophozoite lysates; single well
Sequence (Q8IIJ9 whole entry, looked up): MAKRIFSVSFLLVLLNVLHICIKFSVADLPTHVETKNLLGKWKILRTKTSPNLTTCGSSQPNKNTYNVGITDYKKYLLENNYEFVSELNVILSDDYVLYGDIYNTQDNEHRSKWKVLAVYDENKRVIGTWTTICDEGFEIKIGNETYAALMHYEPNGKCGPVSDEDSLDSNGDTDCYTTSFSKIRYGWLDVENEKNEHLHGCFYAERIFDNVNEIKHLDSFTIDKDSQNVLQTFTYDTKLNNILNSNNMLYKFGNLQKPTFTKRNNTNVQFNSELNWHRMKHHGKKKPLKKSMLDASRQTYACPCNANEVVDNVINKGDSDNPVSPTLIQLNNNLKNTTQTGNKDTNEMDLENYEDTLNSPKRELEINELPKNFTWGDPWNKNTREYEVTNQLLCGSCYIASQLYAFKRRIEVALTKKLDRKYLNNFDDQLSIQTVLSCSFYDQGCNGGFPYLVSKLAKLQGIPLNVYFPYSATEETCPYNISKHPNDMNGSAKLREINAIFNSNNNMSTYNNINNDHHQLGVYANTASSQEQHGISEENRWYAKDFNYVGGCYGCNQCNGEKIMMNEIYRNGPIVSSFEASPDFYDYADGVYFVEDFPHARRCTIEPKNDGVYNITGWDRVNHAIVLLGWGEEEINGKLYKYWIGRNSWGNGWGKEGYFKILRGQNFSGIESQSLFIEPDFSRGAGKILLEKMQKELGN
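Further: 30 min substrate incubation versus DMSO and 10 µM JCP410 controls.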

Structure (SMILES) | % Inhibition @ 10 uM
CC(C)(C)NC(=O)COc1ccccc1C(=O)Nc1cccc(Cl)c1Cl | -1.61%
O=C1CC(NCc2ccco2)C(=O)N1CCc1ccccc1 (centres unmarked) | -3.12%
CC(C)(C)c1ccc(C(=O)CS(=O)(=O)c2ccccc2)cc1 | 1.86%
CCOC(=O)N1CCN(C(=O)CS(=O)Cc2nc(-c3ccc(Cl)cc3)oc2C)CC1 (centres unmarked) | -1.05%
CCOc1cc2c(cc1OCC)C(c1c(F)cccc1F)NCC2 (centres unmarked) | 6.63%
CCOc1ccc(NC(=O)c2c(OC)cccc2OC)cc1 | -2.32%
OC1CCCN(Cc2ccc(Br)s2)C1 (centres unmarked) | -1.07%
COc1ccc(OC)c2c(C)cc(N3CCCC3)nc12 | -11.5%
Nc1nc2ccc(-c3nc4ccccc4[nH]3)cc2s1 | 3.79%
CNC(=O)/C(C#N)=C/c1c(Oc2ccc(C(C)(C)C)cc2)nc2ccccn2c1=O | -4%
Cc1ccc2nc(Cl)c3cc(C(=O)NCCCN4CCOCC4)sc3c2c1 | 3.2%
Cc1ccc(C2c3c(oc4cc(C)c(C)cc4c3=O)C(=O)N2CCCN2CCOCC2)cc1 (centres unmarked) | -2.91%
O=C(NC1CCCC1)c1cc(-c2ccc(O)cc2)on1 | -1.96%
CC1CCc2ccccc2N1C(=O)c1cccs1 (centres unmarked) | 8.71%
Clc1ccc(N2CCN(C3CCN(Cc4ccccc4)CC3)CC2)cc1 | 1.88%
O=c1/c(=C/c2cccc([N+](=O)[O-])c2)sc2nc3ccccc3n12 | 4.42%
CCOc1cccc2c1OC(c1cccc(F)c1)N1N=C(c3ccco3)CC21 (centres unmarked) | 1.88%
O=C(CCc1ccccc1)Nc1nc(-c2ccc(F)cc2)cs1 | 3.53%
COc1cc(C(=O)Nc2cc(-c3nc4ncccc4o3)ccc2C)cc(OC)c1OC | 5.04%
Cc1ccc(OCCCCCCN2CCOCC2)cc1C | -4.01%
CCOc1ccc(NC(=O)C(C)NS(=O)(=O)c2cc(C)ccc2C)cc1 (centres unmarked) | -2.09%
COC(=O)c1cc(/C=C/c2ccccc2)c2c(=O)n(C)c(=O)n(C)c2n1 | 4.11%
Cc1cc(C)c(S(=O)(=O)N2CCc3ccccc32)c(C)c1 | -1.62%
CC(C)CCNC(=O)c1nc(-c2cccc(F)c2)n2c1CCCCC2 | 0.0603%
COc1cccc(N(CC(=O)Nc2ccccc2F)S(=O)(=O)c2ccc(C)cc2)c1 | 0.851% and 1.92%
Cc1sc2ncn(CC(=O)NCc3ccccn3)c(=O)c2c1C | -3.23%

Structure (SMILES) | % Inhibition @ 10 uM
CCCOc1ccc(NC(=O)c2ccco2)cc1 | -1.76%
CCOC(=O)C1=C(CSc2nc(CC)c(C)cc2C#N)OC(N)=C(C#N)C1c1ccccc1OC (centres unmarked) | -1.68%
Cc1c(CNCc2ccccc2)c(C(=O)O)c(C)n1Cc1ccc(F)cc1Cl | -0.23%
COc1ccc(OC)c(CNC(=O)c2cn(CC(C)C)c(=O)c3c2c2ccccc2n3C)c1 | -1.84%
O=C(c1cccs1)N(Cc1nc(-c2ccc(Cl)cc2)no1)C1CCCCC1 | -4.82%
Cc1ccc2c(cnn2C(=O)CCC(=O)O)c1 | -9.2%
CC1=C(C(=O)OCC(C)C)C(c2ccccc2C(F)(F)F)CC(=O)N1 (centres unmarked) | 3.11%
Cc1nn(CCCC(=O)N(C)Cc2ccccc2)c(=O)c2c1sc1ccccc12 | -5.61%
O=C1NC(=O)C(=Cc2ccc(N3CCOCC3)cc2)C(=O)N1 | -0.0648%
Cc1ccccc1Cn1cnc2c(nnn2-c2ccc(F)cc2)c1=O | -2.16%
CC(C)C[C@H](NC(=O)c1ccc(-n2ccnc2)cc1)C(=O)NCC#N | -0.778%
CCCc1nc(N)c(C#N)c(-c2cccc(Br)c2)c1CC | -6.08%
Cc1ccc(OCCCN2CCCC2)cc1C | -0.351%
O=C(NCCc1ccc(Cl)cc1)C1CCCN(S(=O)(=O)N2CCOCC2)C1 (centres unmarked) | 2.54%
COc1ccc(C2/C(=C(\O)OC3CCCCC3)C(C)=Nc3ncnn32)cc1Br (centres unmarked) | -3.13%
Cc1nn(-c2ccccc2)c(-n2cccc2)c1C(=O)N1CCCCCC1 | 1.8%
Cc1ccc(-n2nc(C)c(/C=N/c3ccc(C(=O)O)c(O)c3)c2O)cc1 | 1.37%
CNS(=O)(=O)c1cn(CC(=O)Nc2nc3ccc(Cl)cc3s2)cc1S(=O)(=O)NC | 7.85%
CCOc1ccc(-c2c(C)nn3c(C)c(C(=O)NC(C)CCc4ccccc4)cnc23)cc1OCC (centres unmarked) | -0.477%
O=C(CN(C1CCCCC1)S(=O)(=O)c1ccc(Br)cc1)N1CCCCCC1 | -7.28%
COc1ccc(C2CC(=O)N=C(NC(=O)c3ccc(Cl)cc3)N2)cc1 (centres unmarked) | -9.43%
NC(=O)c1cc(S(=O)(=O)NCc2ccc3c(c2)OCO3)cs1 | 3.28%
O=C(CSc1nc2ccccc2[nH]1)Nc1ncccn1 | 6.51%
C=CCN1C(=O)c2ccccc2C1(O)c1ccc(Cl)cc1 (centres unmarked) | -0.636%
CCOC(=O)C1CCN(Cc2ccsc2)CC1 | -4.35%
Fc1cccc(F)c1CN1CCN(c2ccc(Cl)cc2)CC1 | -3.15%

Structure (SMILES) | % Inhibition @ 10 uM
O=C(O)c1nsc2ccccc12 | -3.78%
Cc1c(C(=O)N2CCOCC2)sc(NC(=O)C(C)C)c1C#N | 2.38%
COc1ccc(-c2csc(N3N=C(c4ccccc4)CC3c3ccccc3)n2)cc1F (centres unmarked) | -2.5%
O=C1N=C(Nc2cccc3ccccc23)S/C1=C1\C(=O)Nc2ccc(Br)cc21 | 0.145%
Cc1cccc(CCNC(=O)c2cn(C)c(=O)c3c2c2ccccc2n3C)c1 | -7.77%
CCCNC(=O)NS(=O)(=O)c1cnccc1Sc1ccc(Cl)c(Cl)c1 | -2.74%
CC(NC(=O)c1sc2nc(-c3cccs3)ccc2c1N)c1ccccc1 (centres unmarked) | 1.28%
O=C(Nc1sc2c(c1C(=O)O)CCCC2)c1ccc(F)cc1 | -3.27%
COC(=O)c1cc(OC)c(OC)cc1NC(=O)c1ccc(OC)cc1 | 3.34%
O=C(O)C1CC=CCC1C(=O)c1c[nH]c2ccccc12 (centres unmarked) | 2.62%
COc1ccc2nc(NC(=O)CNC(=O)Cn3ccc4ccccc4c3=O)sc2c1 | 6.58%
CCN(CC)CCN(C)Cc1ccc(Cl)c(Cl)c1 | -5.9%
COc1ccc2[nH]c3c(c2c1)CCNC3=O | -1.86%
CC(C)C[C@H](NC(=O)[C@H](CC(C)C)NC(=O)OCc1ccccc1)C(=O)C[N+](=O)[O-] | -2.35%
Cc1cc(NC(=O)c2sc3nc4c(c(-c5ccc(Cl)cc5)c3c2N)CCCC4)no1 | -2.14%
O=C(Cc1ccc(Cl)cc1Cl)Nc1ccc(Cl)cn1 | 3.04%
Cc1ccc(Oc2nc3ccccn3c(=O)c2/C=C(\C#N)C(=O)NC2CCS(=O)(=O)C2)cc1 (centres unmarked) | -6.23%
CCn1c2ccccc2n2nc(C)c(C(C)=O)c12 | -3.14%
CCC(CC)NC1CCCCC1OC (centres unmarked) | -3.74%
CC(=O)NC1=NC(=O)/C(=C\c2cccc3ccccc23)S1 | -10.2%
O=C(NCCCO)c1ccc(Cl)cc1 | -0.0369%
COc1ccc2c(CNC3CCCC(C)C3C)c(C(=O)O)n(Cc3ccccc3C)c2c1 (centres unmarked) | 4.14%
COc1ccc(C2C(C#N)=C(N)Oc3[nH]nc(-c4ccc(C)cc4)c32)cc1 (centres unmarked) | 10.6%
c1ccc(COc2cc3ccoc3cc2OCc2ccccc2)cc1 | -6.99%
CCS(=O)(=O)N1CCC(C(=O)NCCN(C)C)CC1 | -1.21%
CCN(CC)S(=O)(=O)c1ccc2[nH]cc(C(=O)O)c2c1 | -2.55%

Structure (SMILES) | % Inhibition @ 10 uM
COC(=O)c1ccc(-c2nc(O)c3c(n2)Oc2ccc(F)cc2C3)cc1 | 5.48%
C1CCCN(c2nc3nonc3nc2N2CCCCCC2)CC1 | -2.6%
Cc1cccc(NC(=O)NC(N)=O)c1 | -3.93%
Cc1cc(/C=C2\SC(Nc3ccccc3)=NC2=O)c(C)n1-c1ccc(S(N)(=O)=O)cc1 | -0.992%
CN(C)CCN(C)Cc1ccc(F)cc1F | 0.135%
CC(Cc1ccccc1)NC(=O)/C=C/c1ccco1 (centres unmarked) | 2.99%
Cc1ccc2onc(CC(=O)NCCC3=CCCCC3)c2c1 | -1.38%
Cc1ccc2oc(=O)c3cc(C(=O)N4CCN(Cc5ccccc5)CC4)sc3c2c1 | 1.38%
CC(C)(C)c1ccc(C(=O)Nc2nc3ccccc3s2)cc1 | 1.25%
Cc1ccc(NCc2ccc(OCC(=O)NC(C)(C)C)cc2)cc1C | -5.56%
Clc1cccc(C2OCC3(CO2)COC(c2cccc(Cl)c2)OC3)c1 (centres unmarked) | -0.48%
CCOc1ccccc1NC(=O)c1cccc(C(=O)Nc2ccccc2OCC)n1 | 4.1%
CCOc1ccc(-c2nc(O)c3c(n2)Oc2ccc(F)cc2C3)cc1 | 6.98%
CSc1ccc(CCNC(=O)CSCc2cc(C(=O)C(F)(F)F)n(C)c2)cc1 | -0.0309%
COc1ccc(Br)cc1CN1CCc2c([nH]c3ccccc23)C1 | -0.828%
c1ccc(-c2ccc(CN3CCN(c4ccccc4)CC3)cc2)cc1 | -3.82%
CCCc1[nH]nc2c1C(=O)C(C(=O)OC)C(C)(C)C2 (centres unmarked) | -0.807%
CC(C(=O)N1CCN(c2ccccn2)CC1)n1ncn2cccc2c1=O (centres unmarked) | -4.59%
CC(C)(C)NC(=O)c1ccc2c(c1)C(=O)N(Cc1ccco1)C2=O | 2.03%
CC(=O)c1ccc(S(=O)(=O)NCc2cn3c(C)csc3n2)cc1 | 5.47%
CCc1nnc2sc(NC(=O)C3CCCCC3)nn12 | -0.659%
O=C(CCc1nc(CN2CCN(S(=O)(=O)c3ccc(Cl)s3)CC2)no1)N1CCCC1 | -3.14%
CC1=C(C(=O)OCC(Cl)(Cl)Cl)C(c2cccc(Br)c2)NC(=O)N1 (centres unmarked) | 2.7%
